This is one part of the list.
Columns and labels:
Test in all cases: glycan array binding signal (z-score within array); higher = stronger binding
Settings in all cases: glycan notation: IUPAC condensed, linker removed
Gal(b1-2)Gal = target: Gal(b1-2)Gal
Summary of the method: (§1)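 The binding signal is a Z-score computed within each array. Data were drawn from 3228 arrays in the Consortium for Functional Glycomics database, restricted to those with a known protein sequence. Scores were averaged over arrays of the same protein sequence at different concentrations or buffers, and over linkers, and negative values can be taken as non-binding.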

Gal(b1-3)Gal = target: Gal(b1-3)Gal
Summary of the method: as §1

Gal(b1-3)Gal(b1-4)GlcNAc = target: Gal(b1-3)Gal(b1-4)GlcNAc
Summary of the method: as §1

Gal(b1-3)GalNAc = target: Gal(b1-3)GalNAc
Summary of the method: as §1

[1] = target: Gal(b1-3)GalNAc(a1-3)[Fuc(a1-2)]Gal(b1-4)Glc
Summary of the method: as §1

[2] = target: Gal(b1-3)GalNAc(a1-3)[Fuc(a1-2)]Gal(b1-4)GlcNAc
Summary of the method: as §1

Gal(b1-3)GalNAc(b1-3)Gal = target: Gal(b1-3)GalNAc(b1-3)Gal
Summary of the method: as §1

[3] = target: Gal(b1-3)GalNAc(b1-3)Gal(a1-4)Gal(b1-4)Glc
Summary of the method: as §1

[4] = target: Gal(b1-3)GalNAc(b1-4)Gal(b1-4)Glc
Summary of the method: as §1

[5] = target: Gal(b1-3)GalNAc(b1-4)[Neu5Ac(a2-3)]Gal(b1-4)Glc
Summary of the method: as §1

Gal(b1-3)GlcNAc = target: Gal(b1-3)GlcNAc
Summary of the method: as §1

[6] = target: Gal(b1-3)GlcNAc(a1-3)Gal(b1-4)GlcNAc
Summary of the method: as §1

[7] = target: Gal(b1-3)GlcNAc(a1-6)Gal(b1-4)GlcNAc
Summary of the method: as §1

Gal(b1-3)GlcNAc(b1-2)Man = target: Gal(b1-3)GlcNAc(b1-2)Man
Summary of the method: as §1

[8] = target: Gal(b1-3)GlcNAc(b1-2)Man(a1-3)[Gal(b1-3)GlcNAc(b1-2)Man(a1-6)]Man(b1-4)GlcNAc(b1-4)GlcNAc
Summary of the method: as §1

[9] = target: Gal(b1-3)GlcNAc(b1-2)Man(a1-3)[Gal(b1-3)GlcNAc(b1-2)Man(a1-6)]Man(b1-4)GlcNAc(b1-4)[Fuc(a1-6)]GlcNAc
Summary of the method: as §1

[10] = target: Gal(b1-3)GlcNAc(b1-2)Man(a1-3)[GlcNAc(b1-4)][Gal(b1-3)GlcNAc(b1-2)Man(a1-6)]Man(b1-4)GlcNAc(b1-4)GlcNAc
Summary of the method: as §1

[11] = target: Gal(b1-3)GlcNAc(b1-2)[Gal(b1-3)GlcNAc(b1-6)]Man(a1-6)[Gal(b1-3)GlcNAc(b1-2)Man(a1-3)]Man(b1-4)GlcNAc(b1-4)GlcNAc
Summary of the method: as §1

[12] = target: Gal(b1-3)GlcNAc(b1-3)Gal(b1-3)GlcNAc
Summary of the method: as §1

[13] = target: Gal(b1-3)GlcNAc(b1-3)Gal(b1-4)Glc
Summary of the method: as §1

[14] = target: Gal(b1-3)GlcNAc(b1-3)Gal(b1-4)GlcNAc
Summary of the method: as §1

[15] = target: Gal(b1-3)GlcNAc(b1-3)Gal(b1-4)GlcNAc(b1-2)Man(a1-3)[Gal(b1-3)GlcNAc(b1-3)Gal(b1-4)GlcNAc(b1-2)Man(a1-6)]Man(b1-4)GlcNAc(b1-4)GlcNAc
Summary of the method: as §1

[16] = target: Gal(b1-3)GlcNAc(b1-3)Gal(b1-4)GlcNAc(b1-2)[Gal(b1-3)GlcNAc(b1-3)Gal(b1-4)GlcNAc(b1-6)]Man(a1-6)[Gal(b1-3)GlcNAc(b1-3)Gal(b1-4)GlcNAc(b1-2)Man(a1-3)]Man(b1-4)GlcNAc(b1-4)[Fuc(a1-6)]GlcNAc
Summary of the method: as §1

[17] = target: Gal(b1-3)GlcNAc(b1-3)Gal(b1-4)GlcNAc(b1-3)Gal(b1-4)GlcNAc(b1-2)[Gal(b1-3)GlcNAc(b1-3)Gal(b1-4)GlcNAc(b1-3)Gal(b1-4)GlcNAc(b1-6)]Man(a1-6)[Gal(b1-3)GlcNAc(b1-3)Gal(b1-4)GlcNAc(b1-3)Gal(b1-4)GlcNAc(b1-2)Man(a1-3)]Man(b1-4)GlcNAc(b1-4)[Fuc(a1-6)]GlcNAc
Summary of the method: as §1

[18] = target: Gal(b1-3)GlcNAc(b1-3)Gal(b1-4)GlcNAc(b1-6)[Gal(b1-3)GlcNAc(b1-3)]Gal(b1-4)Glc
Summary of the method: as §1

[19] = target: Gal(b1-3)GlcNAc(b1-3)Gal(b1-4)[Fuc(a1-3)]GlcNAc
Summary of the method: as §1

[20] = target: Gal(b1-3)GlcNAc(b1-3)Gal(b1-4)[Fuc(a1-3)]GlcNAc(b1-6)[Gal(b1-3)GlcNAc(b1-3)]Gal(b1-4)Glc
Summary of the method: as §1

[21] = target: Gal(b1-3)GlcNAc(b1-3)GalNAc
Summary of the method: as §1

[22] = target: Gal(b1-3)GlcNAc(b1-6)Gal(b1-4)GlcNAc
Summary of the method: as §1

[23] = target: Gal(b1-3)GlcNAc(b1-6)GalNAc
Summary of the method: as §1

[24] = target: Gal(b1-3)GlcNAc(b1-6)[Gal(b1-3)]GalNAc
Summary of the method: as §1

Gal(b1-3)GlcNAc6S = target: Gal(b1-3)GlcNAc6S
Summary of the method: as §1

[25] = target: Gal(b1-3)[Fuc(a1-4)]GlcNAc
Summary of the method: as §1

[26] = target: Gal(b1-3)[Fuc(a1-4)]GlcNAc(b1-2)Man
Summary of the method: as §1

[27] = target: Gal(b1-3)[Fuc(a1-4)]GlcNAc(b1-2)Man(a1-3)[Gal(b1-3)[Fuc(a1-4)]GlcNAc(b1-2)Man(a1-6)]Man(b1-4)GlcNAc(b1-4)[Fuc(a1-6)]GlcNAc
Summary of the method: as §1

[28] = target: Gal(b1-3)[Fuc(a1-4)]GlcNAc(b1-3)Gal(b1-3)[Fuc(a1-4)]GlcNAc
Summary of the method: as §1

[29] = target: Gal(b1-3)[Fuc(a1-4)]GlcNAc(b1-3)Gal(b1-4)[Fuc(a1-3)]GlcNAc
Summary of the method: as §1

[30] = target: Gal(b1-3)[Fuc(a1-4)]GlcNAc(b1-6)GalNAc
Summary of the method: as §1

[31] = target: Gal(b1-3)[GlcNAc(b1-6)]GalNAc
Summary of the method: as §1

[32] = target: Gal(b1-3)[Neu5Ac(a2-6)]GalNAc
Summary of the method: as §1

[33] = target: Gal(b1-3)[Neu5Ac(a2-6)]GlcNAc(b1-4)Gal(b1-4)Glc
Summary of the method: as §1

[34] = target: Gal(b1-3)[Neu5Ac(b2-6)]GalNAc
Summary of the method: as §1

Gal(b1-4)Gal = target: Gal(b1-4)Gal
Summary of the method: as §1

[35] = target: Gal(b1-4)GalNAc(a1-3)[Fuc(a1-2)]Gal(b1-4)GlcNAc
Summary of the method: as §1

[36] = target: Gal(b1-4)GalNAc(b1-3)[Fuc(a1-2)]Gal(b1-4)GlcNAc
Summary of the method: as §1

B1: PX9961X-pdi-531-24-531 (Parabacteroides distasonis) (protein)
chain: DLTEEIHSSVIAENYYNNAGEVMAAMMRPWGHFCGTMQVAQSPWSCNELSSDCAAWPQKGRHGYDNGDWIRLHRHQWIPTDGQVVDAWKKLFEGIGYANNFLTDTENIDFEALQVPMSKAQAQAEMRVYRAYCYWYVMDMFGTAPICEKIGEINPSSKSRAELFAWIEKELNESIPSLSESKTETYGRVSKWGAYALLARLYLNAEIYTGQARWDDCIAACDELAKGGFALDKKWNDTFRADNDKRSTEIIWSIVYDEVYAKGMGWYQRWLHYAHQTGWDLQSGPWNGLVTQPTFYDSFADNDLRKIEGFLIGKQYPRKVDENGNYYYDTTAEPLKGSEEYNGQDLVFVNYIKSMTEGEENSGARSIKYEIQPGTTGDMNNDWVMFRYSEVIYNKAEALMRKNGGKATQEVVDMINSVRQRSFKAEDWEKAKYTTATLTMDEFLAEKGREFAFEGIRRTDLVRFNKFVTTSWWDKTASNEPKRNIFPIPQRQLDANANLSPNEANSLF
glycan array binding signal (z-score) (Gal(b1-2)Gal): -0.807 | glycan array binding signal (z-score) (Gal(b1-3)Gal): 0.564 | glycan array binding signal (z-score) (Gal(b1-3)Gal(b1-4)GlcNAc): 0.853 | glycan array binding signal (z-score) (Gal(b1-3)GalNAc): -0.208 | glycan array binding signal (z-score) [1]: 0.221 | glycan array binding signal (z-score) [2]: -0.348 | glycan array binding signal (z-score) (Gal(b1-3)GalNAc(b1-3)Gal): -0.193 | glycan array binding signal (z-score) [3]: -0.549 | glycan array binding signal (z-score) [4]: -0.662 | glycan array binding signal (z-score) [5]: -0.181 | glycan array binding signal (z-score) (Gal(b1-3)GlcNAc): -0.517 | glycan array binding signal (z-score) [6]: -0.425 | glycan array binding signal (z-score) [7]: 0.342 | glycan array binding signal (z-score) (Gal(b1-3)GlcNAc(b1-2)Man): 0.516 | glycan array binding signal (z-score) [8]: 4.29 | glycan array binding signal (z-score) [9]: 0.18 | glycan array binding signal (z-score) [10]: -0.202 | glycan array binding signal (z-score) [11]: 0.936 | glycan array binding signal (z-score) [12]: -0.107 | glycan array binding signal (z-score) [13]: -0.83 | glycan array binding signal (z-score) [14]: -0.403 | glycan array binding signal (z-score) [15]: -0.341 | glycan array binding signal (z-score) [16]: 3.82 | glycan array binding signal (z-score) [17]: 7.05 | glycan array binding signal (z-score) [18]: -0.321 | glycan array binding signal (z-score) [19]: -0.243 | glycan array binding signal (z-score) [20]: -1.05 | glycan array binding signal (z-score) [21]: 0.46 | glycan array binding signal (z-score) [22]: -0.683 | glycan array binding signal (z-score) [23]: 1.52 | glycan array binding signal (z-score) [24]: 0.663 | glycan array binding signal (z-score) (Gal(b1-3)GlcNAc6S): -0.444 | glycan array binding signal (z-score) [25]: -0.465 | glycan array binding signal (z-score) [26]: 0.539 | glycan array binding signal (z-score) [27]: 0.756 | glycan array binding signal (z-score) [28]: -0.606 | glycan array binding signal (z-score) [29]: -0.466 | glycan array binding signal (z-score) [30]: 0.118 | glycan array binding signal (z-score) [31]: 0.287 | glycan array binding signal (z-score) [32]: -0.162 | glycan array binding signal (z-score) [33]: -0.575 | glycan array binding signal (z-score) [34]: -0.831 | glycan array binding signal (z-score) (Gal(b1-4)Gal): -0.436 | glycan array binding signal (z-score) [35]: -0.606 | glycan array binding signal (z-score) [36]: 0.019

Source: the supplement of paper PMC8728848
